# Some of these densities may be calculated back from excess volumes.
# Test: xn = mol fraction of the nth substance listed
# Conditions: 101 kPa
compound,measurement,setting,value
CCCC[n+]1ccc(C)cc1.F[B-](F)(F)F + CO,mass density,"298.15 K, x2 = 0.5746",1102.1 kg/m3
same,mass density,"298.15 K, x2 = 0.7291",1050.3 kg/m3
same,mass density,"298.15 K, x2 = 0.7878",1021.2 kg/m3
same,mass density,"298.15 K, x2 = 0.8348",991.8 kg/m3
same,mass density,"298.15 K, x2 = 0.8805",954.6 kg/m3
same,mass density,"298.15 K, x2 = 0.9147",919.9 kg/m3
same,mass density,"298.15 K, x2 = 0.9355",895.1 kg/m3
same,mass density,"298.15 K, x2 = 0.9442",883.5 kg/m3
same,mass density,"298.15 K, x2 = 0.9702",843.8 kg/m3
same,mass density,"313.15 K, x2 = 0",1171.9 kg/m3
same,mass density,"313.15 K, x2 = 0.6434",1071 kg/m3
same,mass density,"313.15 K, x2 = 0.7843",1010.8 kg/m3
same,mass density,"313.15 K, x2 = 0.8794",943 kg/m3
same,mass density,"313.15 K, x2 = 0.9307",888.2 kg/m3
same,mass density,"313.15 K, x2 = 0.9708",829.6 kg/m3
same,mass density,"323.15 K, x1 = 0.0153",797.9 kg/m3
same,mass density,"323.15 K, x2 = 0",1165.4 kg/m3
same,mass density,"323.15 K, x2 = 0.4753",1106.7 kg/m3
same,mass density,"323.15 K, x2 = 0.5754",1083.2 kg/m3
same,mass density,"323.15 K, x2 = 0.6377",1066.1 kg/m3
same,mass density,"323.15 K, x2 = 0.793",998.5 kg/m3
same,mass density,"323.15 K, x2 = 0.8434",964.2 kg/m3
same,mass density,"323.15 K, x2 = 0.8928",921.9 kg/m3
same,mass density,"323.15 K, x2 = 0.9147",898.6 kg/m3
same,mass density,"323.15 K, x2 = 0.9366",872.2 kg/m3
same,mass density,"323.15 K, x2 = 0.9599",839.7 kg/m3
CO + CCCC[n+]1ccc(C)cc1.F[B-](F)(F)F,mass density,"313.15 K, x1 = 1",772.3 kg/m3
same,mass density,"323.15 K, x1 = 1",762.7 kg/m3
